Test results as given in PubChem BioAssay AID504466 (National Center for Advancing Translational Sciences (NCATS), 2011).
The campaign covered roughly 330,000 compounds. About 4,200 (1.3%) were called active. This list was built around the results that the source calls inconclusive (neither active nor inactive); the mix of calls is not that of the screen. Calls follow the shape of the dose curve; as a rule, active = well fitted activation curve with a large enough effect; inconclusive = small, poorly fitted or top-dose-only effect; inactive = no such curve, though single readings can be large or run the other way. A potency beside an inconclusive call is a rough fit, not a confirmed value.

assay: qHTS screen for small molecules that induce genotoxicity in human embryonic kidney (HEK293T) cells expressing luciferase-tagged ELG1; conditions: HEK293T ELG1-luciferase reporter, luminescence, 16 h; series mostly up to 46 µM; also: nearly all actives have a fitted effect of over 60% in size
In short: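 16 hr compound incubation (37 °C, 5% CO2) of HEK293T cells carrying luciferase-tagged ELG1; luciferase then measured by ONE-Glo luminescence after 30 min at RT.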
Potency is read from the fitted curve at half-maximal effect; tags tell the direction and shape of the fitted curve.

Compound | Potency
CC(C)Oc1ccc(C(=O)OCC(=O)NCCNC(=O)COC(=O)c2ccc(OC(C)C)cc2)cc1 | inactive
N=c1c(C(=O)NCc2ccc(F)cc2)cc2c(=O)n3ccccc3nc2n1Cc1cccnc1 | inactive
CC1(c2ccc([N+](=O)[O-])cc2)Nc2ccccc2S1 (centres undefined) | inconclusive: 9.2 µM [activator, partial curve, poor fit]
NC(=O)c1c(NC(=O)c2ccccc2)sc2c1CCCC2 | active: 8.2 µM
COC(=O)c1c(NC(=O)c2cnccn2)sc2c1CCC2 | inactive
O=C(NCc1cccnc1)NC1(C(F)(F)F)Oc2ccc(Cl)cc2O1 (centres undefined) | inconclusive: 18.4 µM [activator, partial curve, poor fit]
CC(C)[C@H](NC(=O)c1ccc(Cl)cc1Cl)C(=O)NNc1cccc(C(=O)O)c1 | inconclusive: 25.9 µM [activator, partial curve, poor fit]
O=[N+]([O-])c1cccc(-c2nnc(-c3ccccc3)o2)c1 | inconclusive: 8.2 µM [activator, partial curve]
COc1ccc(C(=O)Nc2cc(C)on2)cc1 | inconclusive: 1.84 µM [activator, full curve]
CC1CCc2nc(NC(=O)C3CCCO3)sc2C1 (centres undefined) | active: 1.16 µM
COc1ccc(-c2cc(C(=O)c3c(N)n(C)c(=O)n(C)c3=O)c3ccccc3n2)cc1OC | inconclusive: 14.6 µM [activator, partial curve]
CCOC(=O)c1ccc(S(=O)(=O)N2CCN(CCc3ccncc3)CC2)cc1 | inactive
CCC(CC)C(=O)Nc1cccc(C(=O)NCCc2ccccc2)c1 | inactive
O=C(Nc1ccc(N2CCOCC2)nc1)c1ccc(F)cc1 | inconclusive: 29.1 µM [activator, single point]
Cc1cccnc1Nc1nc(-c2ccc(O)cc2)cs1 | inconclusive: 7.31 µM [activator, partial curve]
CC1CC(C)CN(c2ncnc3c2cnn3-c2ccc(Cl)cc2)C1 (centres undefined) | inconclusive: 2.91 µM [activator, full curve]
O=C(Cn1cnc2c(OCc3ccccc3)ncnc21)NCCCc1ccccc1 | inactive
COCc1nnc(NC(=O)c2cc3ccccc3o2)s1 | inconclusive: 23.1 µM [activator, partial curve, poor fit]
CCC(=O)Nc1nnc(/C=C/c2ccccc2)s1 | inconclusive: 11.6 µM [activator, partial curve, poor fit]
COC(=O)c1ccc2nc(-c3ccc4c(c3)OCO4)cn2c1 | inconclusive: 0.291 µM [activator, full curve]
Cc1ccc(C2=Nc3ccccc3NC(C)(c3ccc(C)o3)C2)o1 (centres undefined) | inconclusive: 18.4 µM [activator, partial curve, poor fit]
Cc1cc(C)n(-c2ccc(C(=O)Nc3sccc3C(N)=O)cc2)n1 | inconclusive: 2.31 µM [activator, partial curve]
O=C(CCn1cccn1)Nc1ccc2c(c1)OCCO2 | inconclusive: 14.6 µM [activator, partial curve, poor fit]
COc1ccccc1NC(=O)N(Cc1ccco1)Cc1cc2ccc(C)c(C)c2[nH]c1=O | inactive
Oc1ccc(-c2cnc(-c3ccc(O)cc3)nc2)cc1 | active: 2.91 µM

Compound | Potency
c1ccc(CCNc2nc3ccccc3n3nnnc23)cc1 | inconclusive: 23.1 µM [activator, partial curve, poor fit]
COc1cccc(Oc2nccc(N(C)C)c2C#N)c1 | inconclusive: 23.1 µM [activator, partial curve, poor fit]
CC1CC(C)CN(CCCNC(=O)CN2C(=O)c3cccnc3Oc3ccc(Cl)cc32)C1 (centres undefined) | inactive
O=C1N[C@H]2CC=C[C@H]2Nc2ccccc21 | inconclusive: 23.1 µM [activator, partial curve, poor fit]
O=C(CN(C1CC1)S(=O)(=O)c1ccc(S(=O)(=O)N2CCCCCC2)cc1)Nc1ccccc1 | inconclusive: 32.6 µM [activator, partial curve, poor fit]
C=CC[C@H](CC(=O)N(CCO)Cc1ccccc1)C(=O)NC[C@H](OC(=O)[C@@H](CC=C)CC(=O)OC(C)(C)C)c1ccccc1 | inactive
CCn1cc(C(=O)NCCCOC)c(=O)c2cc(S(=O)(=O)N(C)C3CCCCC3)ccc21 | inactive
COc1cccc2c1C(=O)O/C2=C/c1ccc2c(c1)OCO2 | inconclusive: 1.64 µM [activator, partial curve]
Cn1c(C(=O)N2CCc3ccccc3C2)cc2oc3ccccc3c21 | inconclusive: 23.1 µM [activator, single point]
Cc1ccc(NC(=S)N/N=C/c2ccc([N+](=O)[O-])s2)cc1 | inconclusive: 18.4 µM [activator, single point]
Oc1ccc(Cl)cc1-c1cc(-c2ccccc2Cl)[nH]n1 | inactive
CCc1ccccc1NC(=O)Cn1nnc(C(=O)NCc2cccs2)c1N | inconclusive: 32.6 µM [activator, partial curve, poor fit]
CCCOc1ccc(-c2csc3nc[nH]c(=O)c23)cc1 | inconclusive: 16.4 µM [activator, partial curve]
O=C(O)Cn1cc(/C=c2/sc3nc4ccccc4n3c2=O)c2ccccc21 | inactive
CCN(CC1CCCO1)C(=O)c1cc(COc2cc(C)c(Cl)c(C)c2)on1 (centres undefined) | inconclusive: 16.4 µM [activator, partial curve]
O=C(/C=C/Nc1ccc(F)cc1F)c1ccco1 | active: 0.461 µM
COC(=O)C1C(=O)c2c([nH]c(C(=O)OC3CCCCC3)c2C)CC1C (centres undefined) | inconclusive: 2.31 µM [activator, partial curve, poor fit]
Cc1nnc(SCC(=O)Nc2nc3c(s2)CC(C)CC3)s1 (centres undefined) | inconclusive: 18.4 µM [activator, single point]
COc1ccc(/C=C2\SC(=O)N(CCNC(=O)CN3C(=O)NC4(CCCC4)C3=O)C2=O)cc1 | inactive
N/C(=N\OC(=O)c1ccco1)c1cccc([N+](=O)[O-])c1 | inconclusive: 10.3 µM [activator, partial curve]
O=C(c1ccccc1)c1cnc(-c2ccccc2)s1 | active: 2.06 µM
COc1cccc(OCc2cc(C(=O)N3CCN(C(C)=O)CC3)no2)c1 | inconclusive: 23.1 µM [activator, single point]
O=C(Cc1cccs1)Nc1ccccn1 | inconclusive: 32.6 µM [activator, partial curve, poor fit]
CNC(=O)/C(C#N)=C/c1c(N2CCN(c3ccc(OC)cc3)CC2)nc2c(C)cccn2c1=O | inactive
Cc1ccc(C(=O)c2c[nH]c(C(=O)NCc3cccnc3)c2)cc1 | inactive

Compound | Potency
CC(=O)N/N=C(/C)c1ccc(NC(=O)c2csc(C)c2C)cc1 | active: 11.6 µM
Fc1ccc2cnc(-c3ccccc3F)cc2c1 | inconclusive: 23.1 µM [activator, partial curve, poor fit]
CCN(CC)C(=O)c1cc2c(=O)n3ccccc3nc2s1 | active: 16.4 µM
COC(=O)Cc1ccc(OCc2ccc(Cl)nc2)cc1 | inconclusive: 20.6 µM [activator, partial curve, poor fit]
O=c1/c(=C\c2cccc(O)c2)sc2nc(-c3ccccc3)c(-c3ccccc3)n12 | inactive
Cc1cc(C(=O)Nc2ccc3ccccc3c2)c(C)o1 | active: 0.651 µM
Cc1ccc(NC(=O)CCN2C(=O)NC3(CCCC3)C2=O)c(C)c1 | inactive
COCCNC(=O)c1cc(-c2ccccc2C)nn1CC1CC(c2cccnc2)=NO1 (centres undefined) | inactive
CCN(Cc1ccncc1)Cc1nc(Cc2ccccc2Cl)no1 | inactive
COc1cc(CNc2ncn[nH]2)ccc1OCc1cccc(C)c1 | inconclusive: 13 µM [activator, partial curve, poor fit]
COc1cc(OC)cc(C(=O)NCC(=O)OCc2nc3ccccc3s2)c1 | inconclusive: 10.3 µM [activator, partial curve]
O=C(NC(c1ccc(Cl)cc1)c1cc(Cl)c2cccnc2c1O)c1cccnc1 (centres undefined) | inconclusive: 29.1 µM [activator, single point]
CCCc1ccc(-c2ccc(C(=O)O)cc2)nc1 | inconclusive: 0.651 µM [activator, full curve]
CN(C)c1ccc(C(=O)OCC(=O)c2ccc[nH]2)cc1 | active: 16.4 µM
O=C(O)c1cccc(Nc2ncnc3ccccc23)c1 | inactive
Cc1ccc(-c2csc(NC(=O)/C=C/c3cccs3)n2)cc1C | inactive
Clc1nnc(N/N=C/c2ccccc2)c2ccccc12 | active: 7.08 µM
COc1ccc(C)c2sc(=NC(=O)c3ccc(C(C)=O)cc3)n(C)c12 | inconclusive: 2.59 µM [activator, partial curve]
COc1cccc(-c2cc(C(=O)Nc3ccccc3SC)no2)c1 | inconclusive: 9.2 µM [activator, partial curve, poor fit]
c1ccc(Nc2ccccn2)nc1 | inactive
O=C(c1ccc(-c2ccc([N+](=O)[O-])cc2)o1)N1CCCCC1 | inconclusive: 9.2 µM [activator, partial curve]
Cn1cc(SCC(=O)NCCc2ccccc2)c2ccccc21 | inactive
CN(C)CCN1C(=O)C(=O)/C(=C(/O)c2ccc(S(=O)(=O)N3CCOCC3)cc2)C1c1ccc(F)cc1 (centres undefined) | inconclusive: 16.4 µM [activator, partial curve, poor fit]
COc1ccc2c(CCNC(=O)/C=C/c3ccc(OC)c(OC)c3)c[nH]c2c1 | inactive
